Test results as given in PubChem BioAssay AID1460 (National Center for Advancing Translational Sciences (NCATS), 2008).
Several values for one entry are separate records, joined by “and”; a condition that tells them apart may be missing. Equal entries are not always repeated. About 5,800 (2.1%) of roughly 270,000 compounds were called active. The inconclusive results got no clear call from the source; some entries with a clear call stand among them for comparison. Calls come from the whole dose curve; as a rule, active = well fitted inhibition curve with a large enough effect; inconclusive = small, poorly fitted or top-dose-only effect; inactive = flat fitted curve, though single readings scatter. Potencies of inconclusive entries are doubtful fits and often do not repeat.

molecular target: Microtubule-associated protein tau (Homo sapiens) (UniProt P10636); assay: qHTS for Inhibitors of Tau Fibril Formation, Thioflavin T Binding; details: recombinant tau K18 P301L (four-repeat tau fragment), heparin-induced fibrillization, ThT fluorescence; series mostly up to 57.4 µM; note: nearly all actives have a fitted effect of over 55% in size
Chain of UniProt P10636 (P10636 whole entry, looked up, the tested form may be a part): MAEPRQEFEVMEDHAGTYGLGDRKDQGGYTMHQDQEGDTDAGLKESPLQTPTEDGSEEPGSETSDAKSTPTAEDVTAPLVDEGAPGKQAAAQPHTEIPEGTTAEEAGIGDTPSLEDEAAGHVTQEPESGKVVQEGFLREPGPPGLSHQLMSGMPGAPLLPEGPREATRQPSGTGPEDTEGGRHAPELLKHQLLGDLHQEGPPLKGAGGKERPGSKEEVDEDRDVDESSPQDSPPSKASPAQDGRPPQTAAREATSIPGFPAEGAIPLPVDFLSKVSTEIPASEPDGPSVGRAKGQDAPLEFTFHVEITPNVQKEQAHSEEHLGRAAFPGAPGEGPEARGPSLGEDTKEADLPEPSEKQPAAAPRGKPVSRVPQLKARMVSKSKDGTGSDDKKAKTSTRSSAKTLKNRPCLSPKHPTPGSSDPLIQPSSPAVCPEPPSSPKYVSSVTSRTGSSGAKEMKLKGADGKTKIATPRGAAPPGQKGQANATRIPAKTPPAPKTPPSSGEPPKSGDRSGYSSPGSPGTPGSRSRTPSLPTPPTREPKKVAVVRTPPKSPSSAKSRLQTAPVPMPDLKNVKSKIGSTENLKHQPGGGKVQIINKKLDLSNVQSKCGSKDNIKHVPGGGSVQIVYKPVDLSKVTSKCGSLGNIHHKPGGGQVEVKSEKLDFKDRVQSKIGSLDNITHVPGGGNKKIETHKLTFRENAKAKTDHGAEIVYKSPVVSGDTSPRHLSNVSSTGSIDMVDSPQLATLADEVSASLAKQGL
Method in brief: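 Heparin-induced (20 uM) aggregation of recombinant human K18 P301L tau, 15 uM unlabeled with 0.24 uM labeled, pH 7 acetate buffer, 6 hr at 37 C with compound. Fibrils quantified by 30 uM ThT fluorescence after 1 hr ambient incubation.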
% is set by controls: 0 for no effect and ±100 for the full control effect; potency is the fitted concentration of half-maximal effect; tags give direction and shape of the fitted curve.

SMILES | Potency | activity, negative = inhibition
Nc1c(N=Nc2ccccc2F)c(=O)[nH]n1-c1ccccc1 | inconclusive: 3.16 µM [inhibitor, full curve] | –
O=C(Nc1nc2ccc([N+](=O)[O-])cc2s1)c1ccco1 | inactive | –
CN1CCN(C(=O)C2=C[C@H](c3csc4ccccc34)C[C@H](OCc3ccc(CO)cc3)O2)CC1 | inactive | –
Cc1ccc(-c2nn(CC(=O)NCc3ccco3)c(=O)c3ccccc23)cc1 | inactive | –
O=C(Cn1cc(SCc2ccccc2)c2ccccc21)N1CCCCC1 | inconclusive: 14.1 µM [inhibitor, single point] | –
CCOc1ccccc1NC(=O)Cn1c(=O)n(CCCC(=O)NCCc2ccc(C)cc2)c(=O)c2ccccc21 | inactive | –
O=C(Nc1nc2ccc(Cl)cc2s1)c1ccc(Br)o1 | inactive | –
CC(C)(C)OC(=O)N1CCC(c2c(C(=O)NCCCN3CCc4ccccc4C3)cnn2-c2ccccc2)CC1 | inactive | –
CCOC(=O)c1ccc(NC(=S)NCC(O)c2ccccc2)cc1 (stereo not drawn) | inconclusive: 14.1 µM [inhibitor, partial curve] | –
COc1ccc(OC)c(NC(=O)CCc2c(C)nn(-c3ccc(N4CCCC4)nn3)c2C)c1 | inconclusive: 3.16 µM [inhibitor, partial curve] | –
COc1ccc(OC)c(/C=C/c2c([N+](=O)[O-])c(=O)n(C)c(=O)n2C)c1 | inconclusive: 25.1 µM [inhibitor, partial curve] | –
c1coc(CNc2nc3nonc3nc2NCc2ccco2)c1 | inconclusive: 39.8 µM [inhibitor, single point] | –
O=C(Nc1nccs1)c1ccc([N+](=O)[O-])cc1 | inconclusive: 14.1 µM [inhibitor, partial curve, poor fit] | –
Cn1nnnc1SCC1=C(C(=O)O)N2C(=O)C(NC(=O)Cn3nc(C(F)F)cc3C3CC3)C2SC1 (stereo not drawn) | inconclusive: 17.8 µM [inhibitor, partial curve] | –
Cc1coc2cc3oc(=O)c(CCC(=O)N4CCCCC4)c(C)c3cc12 | inconclusive: 31.6 µM [inhibitor, single point] | –
CCC(=O)N1CCc2cc(Br)cc(S(=O)(=O)NCc3cccc(OC)c3)c21 | inconclusive: 0.398 µM [inhibitor, full curve, poor fit] | –
Cc1nc2ccn(Cc3ccccc3)c(=O)c2cc1C(=O)Nc1ccc(F)cc1Cl | inactive | –
CCN1CCc2nc(NC(=O)c3ccc(S(=O)(=O)N(C)C)cc3)sc2C1 | inconclusive: 12.6 µM [inhibitor, partial curve] | –
COc1cccc(CN(C(=O)c2oc3ccc(Br)cc3c2C)C2CCS(=O)(=O)C2)c1 (stereo not drawn) | inactive | –
COc1ccc(CN(Cc2ccccn2)C(=O)CN2C(=O)C(C)Oc3ccccc32)cc1 (stereo not drawn) | inactive | –
CCN(CC)S(=O)(=O)c1ccc2c(c1)c(=O)c(C(=O)NCCc1ccc(OC)c(OC)c1)cn2C | inconclusive: 39.8 µM [inhibitor, single point] | –
COc1ccc(OC)c(NC(=O)CN2CCC(C(=O)c3ccc(C)cc3)CC2)c1 | inconclusive: 28.2 µM [inhibitor, single point] | –
CC1=C(c2cccc(Cl)c2)S(=O)(=O)NC1=NCc1ccccc1C | inactive | –

SMILES | Potency | activity, negative = inhibition
Cc1ccccc1C(=O)NC(=S)NCC1CCCO1 (stereo not drawn) | inconclusive: 0.631 µM [inhibitor, partial curve, poor fit] | –
COc1cc(OC)c(NC(=O)Cn2nc(C)n3cccc3c2=O)cc1Cl | inconclusive: 17.8 µM [activator, single point] | –
CCN1C(=O)[C@H]2[C@H]3[C@H](O)[C@H](O)C/C(=N/OC[C@@H]4O[C@H](c5ccccc5)C=C[C@@H]4Oc4ccc(OC)cc4)[C@@H]3CC[C@@H]2C1=O | – | inactive: -10.4% [at 11.5 µM]
Cc1ccc(O)c(N=CC2=C(O)c3ccccc3C2=O)c1 | active: 25.1 µM | –
COc1ccc(-c2cc(C(=O)Nc3cc(C)n(Cc4ccc(Cl)cc4)n3)no2)cc1OC | inactive | –
Cn1c2c(c(=O)n(C)c1=O)C(C(F)(F)F)(C(F)(F)F)N=C(C1CCCCC1)N2 | inactive | –
O=C(NCc1ccc2c(c1)OCO2)C(=O)NCC1CCCO1 (stereo not drawn) | inactive | –
COc1ccc(Cc2[nH]n3c(=O)cc(C)nc3c2-c2ccccc2)cc1 | inactive | –
COc1cccc(/C=N/NC(=O)c2ccoc2C)c1O | inconclusive: 15.8 µM [inhibitor, partial curve] | –
O=C(NNC(=O)c1cccnc1SCc1cccc([N+](=O)[O-])c1)c1ccccn1 | inactive | –
CCOc1ccc(NC(=O)Nc2cccc(C)n2)cc1 | inconclusive: 3.55 µM [inhibitor, full curve] | –
C[C@H]1[C@H](C)CC[C@]2(C)CC[C@]3(C)C(=CC[C@@H]4[C@@]5(C)CC[C@@H](O)[C@](C)(C(=O)O)[C@@H]5CC[C@]43C)[C@H]12 | inactive | –
Cc1ccc2[nH]c(=O)c(CN(Cc3nnnn3Cc3ccccc3)C3CCCC3)cc2c1 | inconclusive: 35.5 µM [inhibitor, single point] | –
Cc1ccccc1-c1ccnc2c(-c3ccc(F)cc3)c(C)nn12 | inconclusive: 28.2 µM [inhibitor, partial curve] | –
COc1ccc(/C=N/N=C/c2c[nH]c(=O)c(C#N)c2Nc2ccccc2)cc1 | inconclusive: 3.98 µM [inhibitor, single point] | –
CC1(C)CC(=O)C2=C(C1)c1c(ccc3ccccc13)NC2c1ccco1 (stereo not drawn) | inconclusive: 17.8 µM [inhibitor, partial curve] | –
COc1cccc(NC(=O)Cn2c(=O)n(-c3ccccc3)c(=O)c3c4c(sc32)CCCC4)c1 | inconclusive: 39.8 µM [activator, single point] | –
CCN(CC)C(=O)CSc1nc(-c2ccccc2)cc(-c2ccc(OC)cc2)c1C#N | inconclusive: 28.2 µM [inhibitor, single point] | –
C=CC[n+]1c(/C=C2\C=Cc3cc(C)ccc3N2CC)ccc2ccccc21 | active: 3.55 µM | –
O=C(COc1cc(O)c2c(=O)cc(-c3ccccc3)oc2c1)c1ccc(F)cc1 | inconclusive: 3.16 µM [inhibitor, single point] | –
C=CCn1c(=O)/c(=C2/Sc3cc(OC)ccc3N2C)s/c1=C1\C(=O)N(CC)C(=S)N1C | active: 10 µM | –
CN(C)C1C(=O)C(C(N)=O)C(=O)C2(O)C(=O)C3C(=O)c4c(O)ccc(Cl)c4C(O)C3CC12 (stereo not drawn) | inconclusive: 35.5 µM [inhibitor, partial curve] | –
Cc1ccc(OCCn2cnc3cc([N+](=O)[O-])ccc3c2=O)cc1 | inconclusive: 28.2 µM [inhibitor, partial curve] | –

SMILES | Potency | activity, negative = inhibition
CCOc1ccccc1CNC(=O)C1CCN(C(=O)N2CCOc3ccc(Cl)cc32)CC1 | active: 31.6 µM | –
Cc1sc(NC(=O)c2ccccc2)c(C(=O)c2ccccc2)c1C | inconclusive: 20 µM [inhibitor, single point] | –
C/C(=N/NC(=O)c1ccccn1)c1ccc(O)cc1 | inconclusive: 39.8 µM [inhibitor, single point] | –
Cc1c(N/C=C/C(=O)c2cccs2)c(=O)n(-c2ccccc2)n1C | inconclusive: 14.1 µM [inhibitor, partial curve] | –
O=C1SC(SCc2ccccc2)=N/C1=C\c1ccc(C(=O)O)cc1 | inconclusive: 31.6 µM [inhibitor, partial curve] | –
C=CCOc1cccc(C2C(C(=O)c3ccco3)=C(O)C(=O)N2CCN2CCOCC2)c1 (stereo not drawn) | inconclusive: 12.6 µM [inhibitor, partial curve, poor fit] | –
COC(=O)/C=C1/S/C(=N/N=C/c2ccc(N(C)C)cc2)NC1=O | inconclusive: 1.58 µM [inhibitor, full curve] | –
CCC(=O)N1CCc2cc(CNC(=O)Cc3ccc(OC)c(OC)c3)ccc21 | inactive | –
COc1ccc(-n2c3c(cc(C#N)c2=O)C(=O)CCC3)cc1 | inactive | –
CC(=O)N1CCc2c(sc3c2c(=O)n(Cc2ccccc2)c(=O)n3Cc2cccc(Cl)c2)C1 | inactive | –
COc1ccccc1N1CCN(/N=C/C=C/c2ccccc2[N+](=O)[O-])CC1 | active: 14.1 µM | –
COc1ccc(-c2cn3nc(N4CCC(C(=O)NCc5cccc(Cl)c5)CC4)sc3n2)cc1 | inconclusive: 1.12 µM [inhibitor, full curve] | –
COc1ccc(/C=C/c2ccncc2)c2ccccc12 | inconclusive: 28.2 µM [inhibitor, single point] | –
O=C1NC(=S)S/C1=C\c1coc2ccc(O)cc2c1=O | active: 1.12 µM | –
Cc1cccc(OCCSc2nc3ccc(NC(=O)COc4ccccc4C)cc3s2)c1 | inconclusive: 0.447 µM [inhibitor, full curve] | –
COC(=O)CN1C(=O)CSc2ccc(S(=O)(=O)Nc3ccccc3)cc21 | inactive | –
Cc1ccc2c(CC(=O)N3CCN(c4cccc(Cl)c4)CC3)coc2c1C | inconclusive: 3.98 µM [inhibitor, partial curve] | –
O=c1c(C(c2ccc(Br)cc2)c2c(O)nc3n(c2=O)CCCS3)c(O)nc2n1CCCS2 | inconclusive: 20 µM [inhibitor, partial curve] | –
COc1ccc(OC)c(NC(=O)c2oc3c(c2C)-c2nn(Cc4ccc(Cl)cc4)cc2CC3)c1 | inactive | –
O=C1c2c(O)ccc(O)c2C(=O)c2c(NCCNCCO)ccc(NCCNCCO)c21 | active: 3.16 µM and active: 8.91 µM | –
Cc1cccc(N2CCN(c3nc4ccc(C(=O)c5ccccc5)cc4n4cnnc34)CC2C)c1 (stereo not drawn) | inactive | –
Cc1cc2cc(CNC(=O)Nc3ccccc3)ccc2[nH]1 | inconclusive: 8.91 µM [inhibitor, partial curve] | –
